The source of these data is the supplement of paper PMC11417369.

± gives the standard deviation of the averaged measurements. The list shows a part of the results.

In this assay the test system is PfAP2-I AP2 domain 3 (GST-tagged). Briefly: gcPBM binding intensity (ln(normalized median fluorescence intensity)); higher = stronger DNA binding. Put shortly:
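GST-fused DNA-binding domains of P. falciparum, expressed in E. coli, were applied at about 25 μg on average for 1 h to an Agilent 4 × 180k array of primer-extended double-stranded 36-bp intergenic genomic probes and negative controls. Binding intensity is the highest Masliner-normalised natural-log median intensity across replicate spots of either probe orientation, measured with Alexa488 anti-GST antibody and a 488 nm scan.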
As for “ATATATCACAATAAAATTTATAGAATTTTAAATAAG [TGCATGCA_negctrl_site437]”, the “gcPBM binding intensity (ln)” value amounted to 7.4 ± 0.61.
In the case of “CAATAAAGAGGGAATTGTACTTTAAATATCCCTCTT [XGTACX_site1991]” it was 7.61 ± 0.54; in that of “AAAATAAAATAAAATACACACATACATACATACAAA [CACACA_site5366]”, 7.86 ± 0.45; in that of “AATATATTTCGAGATACACACATATATAAAAAAAAA [CACACA_site3398]”, 7.86 ± 0.68.
The same measure for “AAAAAAAAAAAAAAGACACACAATGTGAAATAATAA [CACACA_site804]”: 8 ± 0.62; for “AATAGAACAAATAAAACACACACATATATATATATA [CACACA_site8893]”: 9.32 ± 0.45; for “AAAAAAAAAAAAAAAGTGCACTGAAAATATATTGAA [GTGCAC_site9395]”: 11 ± 0.2.
The same measure for “TTTTTAATTATTTATATAACGATAATCCTTACATAA [TGCATGCA_negctrl_site180]”: 7.59 ± 0.45; for “AACAAAAATGAAAAAACACACATAACATATATAAAT [CACACA_site740]”: 7.83 ± 0.87; for “ATAATATAAATAAAAACACACACAATCGTACATATA [CACACA_site9223]”: 7.92 ± 0.53.
Take “TATATAGAAAACAAGGCATGCAAATAACAAATTGTG [TGCATGCA_site473]”: the “gcPBM binding intensity (ln)” value is 8.32 ± 0.91.
In the case of “ATATAATATATGTAAGTGCGCTTATAAATAAAACGA [GTGCAC_site9841]” it was 8.98 ± 0.042; in that of “ATATATTGATATATGTGTACATAGCTTATTTCATTT [XGTACX_site1800]”, 7.72 ± 0.53.
The same measure for “AATATTTTAAATATTGCATGCAATGAAAAATGTAAA [TGCATGCA_site139]”: 8.23 ± 0.64; for “TTTTAAAGAAAATATTTTATCATTATTTTTTGTACT [CACACA_negctrl_site1648]”: 7.41 ± 0.57; for “TTTTAAAATTTTTTTTTTTTTTTTTTATGAACAAGT [GTGCAC_negctrl_site124]”: 7.46 ± 0.13.
As to “TCTTATTTTTTTATATATACAAAGTTTTATATATAT [GTGCAC_negctrl_site314]”, the “gcPBM binding intensity (ln)” value came to 7.82 ± 0.57.
In the case of “ATAGTAAATATAAAAAGTACTGATTCTTAAATTGTT [XGTACX_site5972]” it was 7.67 ± 0.6; in that of “GTTCAATCGGGTGTTACTTCAAACAAGGAACAACAA [TGCATGCA_negctrl_site471]”, 7.76 ± 0.46.
The same measure for “ACTTGACACCAACACACACACATATATAAAAAAAAA [CACACA_site756]”: 8.32 ± 0.18.
For “TATTTTATTGTTGTTATACACACCATATAAAATATT [CACACA_site1630]”, the “gcPBM binding intensity (ln)” value came to 7.79 ± 0.54.
The same measure for “TATATATCTGTGAAAATACTTAAATTGTTATAAAAA [CACACA_negctrl_site1109]”: 7.62 ± 0.57.
In the case of “CGGCTATTTCTATATACATGCATTTAAAAAAAAAAT [TGCATGCA_site354]” it was 7.93 ± 0.35; in that of “ACCTATTTCAAACACACACACACACTAACAAACATA [CACACA_site8233]”, 8.37 ± 0.39.
Take “AAAAAAAAAATGAGCACACATAAATAAAAACAAACA [CACACA_site1573]”: the “gcPBM binding intensity (ln)” value was determined as 8.12 ± 0.47.
For “AACATATATTAGCTTACATGCAAAAAGTAAAAAAAT [TGCATGCA_site10]”, the “gcPBM binding intensity (ln)” value worked out at 8.05 ± 0.91.
The same measure for “AAAACATCAAAAATGTGTACATATATATATATATAT [XGTACX_site8884]”: 9.4 ± 0.68; for “ATATATATATATGCATGTACATATTTATCTTTATAT [XGTACX_site232]”: 9.26 ± 0.15.
Regarding “AATTTAAAACGGAGATGTACATATATAAATATATAC [XGTACX_site3723]”, the “gcPBM binding intensity (ln)” value stood at 7.65 ± 0.54.
On to “ATGTGAACATTCAATGCACACGATGTAATTATACAT [CACACA_site15]”, for which the “gcPBM binding intensity (ln)” value turned out to be 9.44 ± 0.2.
In the case of “TTTTTAATATATATCACACATATATATTTTTAATTA [CACACA_site6099]” it was 7.66 ± 0.48.
In the case of “ATAAAAATCTTTAGTAGTACATTATAAAAAACTATT [XGTACX_site5531]” it was 7.71 ± 0.5; in that of “CTAATCGTGCACAACTGTACATTTGTCAAGGGCAAT [XGTACX_site8662]”, 10.77 ± 0.028.
For “TTTAAAAATATATATTGTACATATATATATCTATGA [XGTACX_site3556]”, the “gcPBM binding intensity (ln)” value stood at 7.42 ± 0.13.
As to “ATAAAAATTAAAAGGAGTACTTAAATATTAAGATGG [XGTACX_site4815]”, the “gcPBM binding intensity (ln)” value turned out to be 8.04 ± 0.12.
In the case of “TTTATTTAAAAAATAAAAAAAAAAAAAAAAAAAAAA [CACACA_negctrl_site1670]” it was 8.26 ± 0.88.
The same measure for “TACTATTTAAAATTTGAACACACATTATTTATTTTA [CACACA_site9020]”: 7.45 ± 0.54; for “TATACAATATATATAACACACATATTTATATAAAAT [CACACA_site5061]”: 7.75 ± 0.29.
On to “AACATAAAAATTGAAGCACACACACTAATGAAATAC [CACACA_site8287]”, for which the “gcPBM binding intensity (ln)” value is 8.68 ± 0.54.
As for “ACAAATCTATAAGAGTGTACGAACAGTAAAGGAATT [XGTACX_site2070]”, the “gcPBM binding intensity (ln)” value was 8.28 ± 0.81.
As for “CAGTTGGAAGGAAAGTGTACATAAAAAAAAATATAA [XGTACX_site8784]”, the “gcPBM binding intensity (ln)” value amounted to 8.2 ± 0.64.
As for “AAAATACCATTTGAAACACACAAAAAAAAAAAAAAT [CACACA_site2981]”, the “gcPBM binding intensity (ln)” value came to 7.58 ± 0.5.
In the case of “ATATTATATATATACACACACACATGCATGCACATA [CACACA_site7917]” it was 9.05 ± 0.56; in that of “TATTTTCTCGTTTGCATGCACCTTATTTTATGTGGT [GTGCAC_site9470]”, 9.53 ± 0.38.
In the case of “TAAAATTTGCGATGCACACAGAATAGCTAATATGAC [CACACA_site2995]” it was 8.21 ± 0.69; in that of “TACTAAAACCCATACACACACATATTTATAGTACCA [CACACA_site7484]”, 7.72 ± 0.44; in that of AAATTCTGCATCGAGGTGCGCCATAAAAATTGTGGT, 9.195 ± 0.021.
For the sequence “AGTTATTTTAAATGTAGTACACAAAAGAAATATTAA [XGTACX_site4092]”, the “gcPBM binding intensity (ln)” value turned out to be 8.425 ± 0.007.
On to “CATAAATTAAAACACACACACACAAAAAAAAAAAAA [CACACA_site2262]”, for which the “gcPBM binding intensity (ln)” value worked out at 8.05 ± 0.55.
With “ATATATTATGGGTGTGCACACAATATTTATATGTTC [CACACA_site2270]”, the “gcPBM binding intensity (ln)” value amounted to 9.59 ± 0.23.
The same measure for “TTATAATAAATATATAAAAAAAAAAAAAAAAAAAAA [CACACA_negctrl_site1639]”: 8.16 ± 0.61; for “TTTTCTTATAAATGAAGTACAAAAAAAAAATATATA [XGTACX_site1352]”: 8 ± 0.23.
“TGATAGCACCTTATATGTACATATAATATATTATTA [XGTACX_site837]”: the “gcPBM binding intensity (ln)” value is 8.855 ± 0.035.
For the sequence “ACATATATGGAGCTTATACACACTTTTATATTTTAA [CACACA_site3854]”, the “gcPBM binding intensity (ln)” value stood at 7.7 ± 0.57.
As to “TTTTAAATATGCCATACACACTACTCTATAATAAAT [CACACA_site6987]”, the “gcPBM binding intensity (ln)” value stood at 7.87 ± 0.44.
The same measure for “TTATCATATAATTATTGTACTAAAAAAAAAGCGAGT [XGTACX_site3086]”: 8.24 ± 0.52.
